From article PMC11995724, “Antibiotic target discovery by integrated phenotypic and activity-based profiling of electrophilic fragments” (Cell chemical biology, 2025)
In all, about 3,200 compounds went through this assay and about 75 (2%) showed an effect of 50% or more. This is one part of the list.

What follows are compounds tested on T1, S. aureus MSSA476. Details: relative growth, OD600, TSB; 25 µM; inhibitor.
T1 construct: MSSA476
Design: species or system S. aureus MSSA476 (TSB) or V. cholerae SAD30 (LB); 384-well bacterial growth screen at 25 uM, OD600 relative to DMSO control
`CCN(C(=O)CCl)c1ccccc1` [6-E15, 2-chloro-N-ethyl-N-phenylacetamide] was tested, and the “% of control remaining” value was 87.4146%. With `O=C(CCl)NCc1ccc(N2CCOCC2)nc1` [6-E22, 2-chloro-N-{[6-(morpholin-4-yl)pyridin-3-yl]methyl}acetamide] the “% of control remaining” value was 98%. In the case of `Cc1c(C#N)c(NC(=O)CCl)n(C2CCCCC2)c1C` [4-N18, 2-chloro-N-(3-cyano-1-cyclohexyl-4,5-dimethyl-1H-pyrrol-2-yl)acetamide], the “% of control remaining” value was 117.008%. In the case of `C=CC(=O)N(CC)CC(=O)N1CCn2c(nc(C)c2C)C1` [2-B18, N-(2-{2,3-dimethyl-5H,6H,7H,8H-imidazo[1,2-a]pyrazin-7-yl}-2-oxoethyl)-N-ethylprop-2-enamide], the “% of control remaining” value was 116.623%. `C=CC(=O)N1CCOC(c2ccc(F)c(C)c2)C1` (stereo not shown) [3-A09, 1-[2-(4-fluoro-3-methylphenyl)morpholin-4-yl]prop-2-en-1-one] was tested, and the “% of control remaining” value was 117.022%. `O=C(CCl)NC1CCN(C(=O)c2ccccc2)C1` (stereo not shown) [7-P06, N-(1-benzoylpyrrolidin-3-yl)-2-chloroacetamide] was tested, and the “% of control remaining” value was 111.146%. With `COc1ccc(CC2CCN2C(=O)C(C)Cl)cc1` (stereo not shown) [5-O22, 2-chloro-1-{2-[(4-methoxyphenyl)methyl]azetidin-1-yl}propan-1-one] the “% of control remaining” value was 104.189%. For `CN1C=CC(=C(C#N)C(=O)CCl)C=C1` [10-G21, 4-chloro-2-(1-methyl-1,4-dihydropyridin-4-ylidene)-3-oxobutanenitrile], the “% of control remaining” value was 112.5%. With `C=CC(=O)NCCC(=O)N1CCOC(c2nc(C)cs2)C1` (stereo not shown) [3-K04, N-{3-[2-(4-methyl-1,3-thiazol-2-yl)morpholin-4-yl]-3-oxopropyl}prop-2-enamide] the “% of control remaining” value was 92.2943%. With `Cc1cccc(NC(=O)C(C#N)=Cc2cc(C)n(C3CC3)c2C)c1` [9-D17, 2-cyano-3-(1-cyclopropyl-2,5-dimethyl-1H-pyrrol-3-yl)-N-(3-methylphenyl)prop-2-enamide] the “% of control remaining” value was 114.757%. In the case of `CCc1ccc(NC(=O)C(C#N)=Cc2cccn2C)cc1` [8-A20, 2-cyano-N-(4-ethylphenyl)-3-(1-methyl-1H-pyrrol-2-yl)prop-2-enamide], the “% of control remaining” value was 76.0166%. For `C=CC(=O)NCc1cn(C(F)F)c2ccccc12` [2-F11, N-{[1-(difluoromethyl)-1H-indol-3-yl]methyl}prop-2-enamide], the “% of control remaining” value was 107.92%. For `CC(=O)Nc1ccc(NC(=O)C(C)Cl)cc1` (stereo not shown) [5-N06, 2-chloro-N-(4-acetamidophenyl)propanamide], the “% of control remaining” value was 128.233%. For `O=C(CCl)Cc1cc(Cl)cc(Cl)c1` [10-I15, 1-chloro-3-(3,5-dichlorophenyl)propan-2-one], the “% of control remaining” value was 23.125%. `CCc1ccc(C(NC(=O)CCl)c2cccc(F)c2)cc1` (stereo not shown) [4-C20, 2-chloro-N-[(4-ethylphenyl)(3-fluorophenyl)methyl]acetamide] was tested, and the “% of control remaining” value was 149.786%. With `O=C(CCl)NCc1ccccc1CN1CCCC1=O` [6-K14, 2-chloro-N-({2-[(2-oxopyrrolidin-1-yl)methyl]phenyl}methyl)acetamide] the “% of control remaining” value was 106.878%. With `O=C(CCl)NC(C1CC1)C1CC1` [6-C22, 2-chloro-N-(dicyclopropylmethyl)acetamide] the “% of control remaining” value was 91.5122%. `CC(Cl)C(=O)NCCC1(CO)CC1` (stereo not shown) [7-H19, 2-chloro-N-{2-[1-(hydroxymethyl)cyclopropyl]ethyl}propanamide] was tested, and the “% of control remaining” value was 90.1099%. `C=CC(=O)NCc1cn(-c2ccccc2)nn1` [2-I13, N-[(1-phenyl-1H-1,2,3-triazol-4-yl)methyl]prop-2-enamide] was tested, and the “% of control remaining” value was 109.661%. With `Cc1cc(C=C(C#N)C(=O)Nc2ccccn2)c(C)n1CC(C)C` [9-J21, 2-cyano-3-[2,5-dimethyl-1-(2-methylpropyl)-1H-pyrrol-3-yl]-N-(pyridin-2-yl)prop-2-enamide] the “% of control remaining” value was 77.9026%. In the case of `C=CC(=O)NCCc1nccs1` [3-M20, N-[2-(1,3-thiazol-2-yl)ethyl]prop-2-enamide], the “% of control remaining” value was 95.4288%. With `C=CC(=O)NC1CC(C2CCCCC2)C1` (stereo not shown) [1-D10, N-(3-cyclohexylcyclobutyl)prop-2-enamide] the “% of control remaining” value was 105.495%. For `COc1ccccc1CNC(=O)C(C)Cl` (stereo not shown) [5-M21, 2-chloro-N-[(2-methoxyphenyl)methyl]propanamide], the “% of control remaining” value was 93.9891%. With `Cc1cccc(NC(=O)C(C#N)=Cc2cc(C)c(C)cc2C)c1` [8-C18, 2-cyano-N-(3-methylphenyl)-3-(2,4,5-trimethylphenyl)prop-2-enamide] the “% of control remaining” value was 119.834%. `CN(Cc1cc(-c2ccccc2)[nH]n1)C(=O)CCl` [5-D15, 2-chloro-N-methyl-N-[(5-phenyl-1H-pyrazol-3-yl)methyl]acetamide] was tested, and the “% of control remaining” value was 126.412%. For `CN(c1ccccc1)S(=O)(=O)c1cccc(NC(=O)CCl)c1` [4-H04, 2-chloro-N-{3-[methyl(phenyl)sulfamoyl]phenyl}acetamide], the “% of control remaining” value was 90.3287%. `COCc1ccc(CNC(=O)CCl)cc1` [6-O22, 2-chloro-N-{[4-(methoxymethyl)phenyl]methyl}acetamide] was tested, and the “% of control remaining” value was 106.195%. In the case of `C=CC(=O)N1CCC(C(=O)Nc2ccn(Cc3ccccn3)n2)CC1` [3-B07, 1-(prop-2-enoyl)-N-{1-[(pyridin-2-yl)methyl]-1H-pyrazol-3-yl}piperidine-4-carboxamide], the “% of control remaining” value was 115.629%. For `O=C(CCl)N(Cc1cc(F)ccc1F)CC1CCOCC1` [5-P03, 2-chloro-N-[(2,5-difluorophenyl)methyl]-N-[(oxan-4-yl)methyl]acetamide], the “% of control remaining” value was 95.4463%. `CC(=O)N(C)c1cccc(NC(=O)C(C#N)=Cc2ccco2)c1` [9-L18, 2-cyano-3-(furan-2-yl)-N-[3-(N-methylacetamido)phenyl]prop-2-enamide] was tested, and the “% of control remaining” value was 94.6816%. `C=CC(=O)NCc1ccc(C(=O)N2CCCC23CCOC3=O)cc1` (stereo not shown) [3-I06, N-[(4-{6-oxo-7-oxa-1-azaspiro[4.4]nonane-1-carbonyl}phenyl)methyl]prop-2-enamide] was tested, and the “% of control remaining” value was 101.698%. For `Cc1cccc(Cl)c1CCCNC(=O)CCl` [7-F04, 2-chloro-N-[3-(2-chloro-6-methylphenyl)propyl]acetamide], the “% of control remaining” value was 69.3878%. `Cc1cc(C(=O)CCl)c(C)n1C(C)c1ccccc1` (stereo not shown) [10-P17, 2-chloro-1-[2,5-dimethyl-1-(1-phenylethyl)-1H-pyrrol-3-yl]ethan-1-one] was tested, and the “% of control remaining” value was 101.563%. `CC(Cl)C(=O)Nc1ccc(-c2c[nH]cn2)cc1` (stereo not shown) [5-F08, 2-chloro-N-[4-(1H-imidazol-4-yl)phenyl]propanamide] was tested, and the “% of control remaining” value was 92.5319%. `N#Cc1cccc(C(NC(=O)CCl)C(F)(F)F)c1` (stereo not shown) [7-N04, 2-chloro-N-[1-(3-cyanophenyl)-2,2,2-trifluoroethyl]acetamide] was tested, and the “% of control remaining” value was 114.286%. In the case of `O=C(CCl)Nc1cc(S(=O)(=O)N2CCOCC2)ccc1Cl` [6-H03, 2-chloro-N-[2-chloro-5-(morpholine-4-sulfonyl)phenyl]acetamide], the “% of control remaining” value was 86.3902%. For `COc1ccc([N+](=O)[O-])cc1NC(=O)C(C)Cl` (stereo not shown) [5-N14, 2-chloro-N-(2-methoxy-5-nitrophenyl)propanamide], the “% of control remaining” value was 112.933%. For `O=C(CCl)Nc1ccc(S(=O)(=O)N2CCCC2)cc1` [4-F08, 2-chloro-N-[4-(pyrrolidine-1-sulfonyl)phenyl]acetamide], the “% of control remaining” value was 96.0457%. With `N#CC(=Cc1ccc(OC(F)F)cc1)C(=O)Nc1cccnc1` [9-K04, 2-cyano-3-[4-(difluoromethoxy)phenyl]-N-(pyridin-3-yl)prop-2-enamide] the “% of control remaining” value was 118.052%. For `Cl.O=C(CCl)Nc1ncc[nH]1` [6-B03, 2-chloro-N-(1H-imidazol-2-yl)acetamide hydrochloride], the “% of control remaining” value was 78.1951%. For `CC(C)NC(=O)C(C#N)=Cc1ccc(Cl)c([N+](=O)[O-])c1` [8-J08, 3-(4-chloro-3-nitrophenyl)-2-cyano-N-(propan-2-yl)prop-2-enamide], the “% of control remaining” value was 107.552%. In the case of `Cc1cc(C(=O)CCl)c(C)n1-c1ccc(OC(F)(F)F)cc1` [10-G04, 2-chloro-1-{2,5-dimethyl-1-[4-(trifluoromethoxy)phenyl]-1H-pyrrol-3-yl}ethan-1-one], the “% of control remaining” value was 115.313%. In the case of `C=CC(=O)NC1COC(C)C1` (stereo not shown) [1-H17, N-(5-methyloxolan-3-yl)prop-2-enamide], the “% of control remaining” value was 103.033%. In the case of `C=CC(=O)N1CCC(C(=O)N2CCC(Cc3ncon3)CC2)CC1` [2-J06, 1-(4-{4-[(1,2,4-oxadiazol-3-yl)methyl]piperidine-1-carbonyl}piperidin-1-yl)prop-2-en-1-one], the “% of control remaining” value was 107.224%. In the case of `CC(Cl)C(=O)N(Cc1cnn(C)c1)c1ccc(F)cc1` (stereo not shown) [6-P11, 2-chloro-N-(4-fluorophenyl)-N-[(1-methyl-1H-pyrazol-4-yl)methyl]propanamide], the “% of control remaining” value was 97.6585%. With `C=CC(=O)N1CCC(c2ncc(C(=O)O)o2)CC1` [2-G19, 2-[1-(prop-2-enoyl)piperidin-4-yl]-1,3-oxazole-5-carboxylic acid] the “% of control remaining” value was 116.275%.
